We go through 44 compounds from ChEMBL document CHEMBL4888484, “Replenishing the malaria drug discovery pipeline: Screening and hit evaluation of the MMV Hit Generation Library 1 (HGL1) against asexual blood stage Plasmodium falciparum ,using a nano luciferase reporter read-out” (2022).

Structures are written as SMILES. In all, about 150,000 compounds went through this assay and about 540 (0.36%) showed an effect of 50% or more. The list shows a part of the results.

The test relates to Plasmodium falciparum. As to the kind of experiment: Primary screen in NF54 nanoGlo assay, in single point, at 2uM, 72h; a lower Z score goes with more inhibition. It counts as functional, Erythrocyte. As to conditions: timepoint 72 hour.
`Cn1c(CNC(=O)c2cc[n+]([O-])cc2)nc2ccc(F)cc21`: the “% Inhibition” value worked out at 2% and the Z score is -0.37.

In the case of `COc1cc(CN2CCN3C(=O)CNC(=O)[C@@H]3C2)ccc1OCC=C(C)C`, the “% Inhibition” value is listed as -7% and the Z score is on record as 1.41.

With `CN=C(NCc1nc(C)no1)N1CCN(c2cccc(C)c2C)CC1`, the “% Inhibition” value was determined as 12% and the Z score is on record as -1.76.

Regarding `Cc1cnccc1CCNC(=O)NC1CCOC(C(C)(C)C)C1` (stereo not drawn), the “% Inhibition” value is -8% and the Z score is 0.77.

Regarding `O=C(Nc1ccc(N2CCOCC2)cc1)C1CCN(c2cnc3nccnc3c2)CC1`, the “% Inhibition” value is given as -5% and the Z score is recorded as 0.91.

For the compound `CC(C)n1ccnc1CN1CCn2nc(CNS(C)(=O)=O)cc2C1`, the “% Inhibition” value was -1% and the Z score came out at 0.09.

`O=C(c1ccc2[nH]nnc2n1)N1CCC(F)(c2ccccc2C(F)(F)F)CC1`: the “% Inhibition” value was -12% and the Z score was 1.79.

Consider `C=CCN(CC#Cc1ccccc1)Cc1ccoc1`, for which the “% Inhibition” value is 2% and the Z score is -0.25.

With `CCc1n[nH]cc1C(=O)N[C@H]1COCC[C@@H]1OCc1ccccn1`, the “% Inhibition” value was -8% and the Z score worked out at 1.05.

Take `CC(C)c1ncc(Cl)c(-c2nc(C(C)(C)NS(C)(=O)=O)no2)n1`: the “% Inhibition” value stood at 9% and the Z score is -1.13.

As for `CCn1cc(CN(C)Cc2cnc(NC[C@H]3CCCO3)nc2)cn1`, the “% Inhibition” value was -3% and the Z score was 0.42.

Turning to `O=C1c2ccccc2C(=O)N1Cc1ccn(C2CCCC2)n1`, the “% Inhibition” value was 29% and the Z score is reported as -3.32.

Regarding `CC(C)(C)c1nnc(C(=O)NCc2ncc(Br)cn2)o1`, the “% Inhibition” value is reported as -3% and the Z score was 0.49.

For the compound `CC[C@H](NC(=O)c1ccn(C)c1C)c1nccs1`, the “% Inhibition” value is on record as -11% and the Z score came out at 1.17.

Regarding `O=C(Nc1ccc(Cl)c(Cl)c1)N1CCOCC1`, the “% Inhibition” value was found to be 3% and the Z score was -0.41.

For the compound `COc1cccc(CNC(=O)[C@H](CCC(N)=O)NC(=O)OCc2ccccc2)c1`, the “% Inhibition” value is on record as -1% and the Z score is given as 0.14.

For the compound `COc1nccnc1NCCn1nc(C)c(C)c1C`, the “% Inhibition” value is given as -5% and the Z score is 0.77.

As to `Cc1cc(NC(=O)N2CCC(O)(c3c(F)cccc3F)CC2)ccn1`, the “% Inhibition” value is -11% and the Z score was 1.12.

For `COCCN1CCCCC[C@H](O)c2cc(C(=O)NCC3CC3)ccc21`, the “% Inhibition” value came out at 1% and the Z score was -0.11.

As to `O=C(N[C@@H]1C[C@H](Cn2cc(C3CC3)nn2)[C@@H](O)[C@H]1O)C1CCOCC1`, the “% Inhibition” value was 5% and the Z score was -0.6.

With `Cc1cc(NC[C@H](C)c2ccccc2)nn1C`, the “% Inhibition” value was -4% and the Z score was 0.43.

As for `O=C(CCC1CCCCC1)N1CC(C(F)F)C1`, the “% Inhibition” value was -14% and the Z score came to 1.58.

For the compound `Cc1cc(Br)cc(S(=O)(=O)N(C)[C@@H](C)CO)c1`, the “% Inhibition” value is -1% and the Z score turned out to be 0.14.

In the case of `O=C1CN(C(=O)[C@H]2CCOC2)CCN1CCc1ccccc1`, the “% Inhibition” value was -18% and the Z score came to 1.78.

For `COc1ccc(Nc2nc3c(c(=O)[nH]2)CCC3)cc1`, the “% Inhibition” value was -11% and the Z score is 1.47.

As to `C[C@H]1CN(C(=O)c2ccc(O)nc2)CC(C)(C)O1`, the “% Inhibition” value is -10% and the Z score was 1.56.

Turning to `CN(C)[C@@]1(c2ccccc2)CS(=O)(=O)C1(C)C`, the “% Inhibition” value is recorded as -5% and the Z score was 0.89.

In the case of `COc1cccc2c1OC[C@@H](C(=O)N(Cc1cnn(C)c1)C1CCCCC1)C2`, the “% Inhibition” value is -2% and the Z score is given as 0.38.

On to `Cn1nc2n(c1=O)C[C@@H](C(=O)N1CCC(CNC(=O)c3ccoc3)CC1)CC2`, for which the “% Inhibition” value is recorded as -5% and the Z score came out at 0.79.

For the compound `CN(c1ccccc1C(=O)N1CCN(c2ccccc2F)CC1)S(=O)(=O)c1ccccc1`, the “% Inhibition” value is 3% and the Z score is on record as -0.4.

`COc1ccccc1N1CCN(C[C@@H](O)CC2CCCC2)CC1`: the “% Inhibition” value is given as -3% and the Z score is 0.25.

`Cc1cscc1NC(=O)NCC(C)(C)C1CCOCC1`: the “% Inhibition” value is 2% and the Z score was -0.24.

Turning to `NC(=O)CN1CCCN(C(=O)c2cc(Cl)sc2Cl)CC1`, the “% Inhibition” value is recorded as -5% and the Z score is reported as 0.78.

For the compound `COc1cc(C)c(-c2cccc(C(=O)N[C@H]3CS(=O)(=O)C[C@@H]3O)c2)cn1`, the “% Inhibition” value is on record as -9% and the Z score was 1.11.

With `CCN(CC)C(=O)c1cnc2ccc(C)cn2c1=O`, the “% Inhibition” value was found to be 2% and the Z score is -0.27.

In the case of `O=C(CNC(=O)c1cccs1)NC1CCCCCCC1`, the “% Inhibition” value is 0% and the Z score was determined as 0.06.

Regarding `CC(C)c1nn(-c2ccccc2)c(N(C)C)c1CN(C[C@H]1CCCO1)C(=O)c1ccccc1Cl`, the “% Inhibition” value is -13% and the Z score is recorded as 1.16.

Turning to `c1c[nH]c(Cn2cc(-c3ccc(-c4cc[nH]n4)s3)nn2)n1`, the “% Inhibition” value was -9% and the Z score came to 1.58.

For `O=C(NCc1ccc(F)cc1)c1noc(CCn2cncn2)n1`, the “% Inhibition” value was determined as 5% and the Z score is -0.93.

Consider `CC[C@@H](c1ccccn1)N(C)Cc1coc(C)n1`, for which the “% Inhibition” value was -8% and the Z score worked out at 1.05.

On to `CC1(C)N=C(c2ccc(C(C)(C)C)cc2)C(=O)N1`, for which the “% Inhibition” value is 33% and the Z score is given as -1.22.

Consider `OCCn1ccc([C@H]2CCCN(Cc3ccccc3Cn3cccn3)C2)n1`, for which the “% Inhibition” value is reported as 0% and the Z score turned out to be 0.05.

Consider `CC1(C)C[C@@H]1NC(=O)C1(CF)CCOCC1`, for which the “% Inhibition” value is reported as -8% and the Z score amounted to 0.8.

Take `CC[C@@H](C(=O)N1CCN(c2ccc(NC(=O)c3ccc4c(c3)OCO4)cc2C(=O)N(C)Cc2ccccc2)CC1)c1ccccc1`: the “% Inhibition” value was determined as 5% and the Z score is recorded as -0.54.
